Source: PubChem BioAssay AID1347071 (National Center for Advancing Translational Sciences (NCATS), 2019)
In all, about 410,000 compounds went through this assay and about 260 (0.063%) were called active. Inconclusive means that the source gave no clear call. Such entries were picked first, then a sample of the others. The call rests on the fitted dose curve; in most records, active means well fitted activation curve with a large enough effect; inconclusive means small, poorly fitted or top-dose-only effect; inactive means no such curve, though single readings can be large or run the other way. Potencies of inconclusive entries are left out as doubtful fits.

test: qHTS for compounds that reverse cellular toxicity of Amyloid beta (A-beta) peptide in yeast: Primary Screen; settings: yeast expressing A-beta42, growth rescue, OD600, 48 h; growth rescue: at 46.1 µM (top of the series), 0% DMSO, 100% iron-clioquinol control; further: nearly all actives have a fitted effect of over 55% in size
In short: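 Growth rescue measured by 600 nm absorbance after 48 h yeast culture at 30 C with compound. Values normalized between DMSO and an equimolar ferric chloride plus clioquinol control.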
Potency means the concentration at half of the fitted maximal effect; tags describe the fitted curve by direction and shape.

SMILES | Potency | growth rescue
COC(=O)C1=C(C)N=C2SCCC(=O)N2C1/C=C/c1ccccc1 (stereo not drawn) | inconclusive [activator, partial curve] | 
Cc1cccc(C)c1OC(=O)Cc1ccccc1[N+](=O)[O-] | inconclusive [activator, single point] | 
Cc1ccc([N+](=O)[O-])cc1NC(=S)NC(=O)C(C)(C)C | inconclusive [activator, partial curve, poor fit] | 
COc1ccc(/C=N/NC(=S)N[C@H]2CC3CCC2C3)cc1 (stereo partly drawn) | inconclusive [activator, full curve, poor fit] | 
Cc1ccc(S(=O)(=O)N2CCN(C(=O)COC(=O)CCOc3cc(C)ccc3C)CC2)cc1 | inconclusive [activator, partial curve, poor fit] | 
COCCCNC(=S)NNC(=S)Nc1ccc(OC)cc1 | inconclusive [activator, single point] | 
O=C(CC1CCCC1)Nc1ccc(Cl)c(S(=O)(=O)N2CCOCC2)c1 | inconclusive [activator, single point] | 
CC12CC3CC(C)(C1)CC(C(=O)Nc1nncs1)(C3)C2 | inconclusive [activator, partial curve] | 
CS(=O)(=O)c1cccc(C(=O)NC(c2ccccc2)c2ccccc2)c1 | inconclusive [activator, partial curve, poor fit] | 
CCC(=O)n1nc(NCc2ccccc2OC)nc1NCc1ccccc1OC | inconclusive [activator, full curve, poor fit] | 
S=C(NCCc1ccc(Cl)cc1)NC1CCCC1 | active: 10 µM | 
COc1ccc2[nH]c(=O)c(CN(Cc3ccco3)C(c3nnnn3Cc3ccccc3)C(C)C)cc2c1 (stereo not drawn) | inconclusive [activator, single point] | 
COC(=O)C(Cc1c[nH]c2ccccc12)NC(C)=O (stereo not drawn) | inconclusive [activator, partial curve, poor fit] | 
Cc1nn(C)c(C)c1S(=O)(=O)N1CCC(C(=O)Nc2ccc3c(c2)OCCO3)CC1 |  | inactive: -9.86%
CN1CCN(CCCNC(=O)Cn2c(-c3cccs3)cc3cc(Cl)ccc32)CC1 |  | inactive: 5.58%
Cn1c(Cl)c(/C=N/OC(=O)C2CC2)c2ccccc21 | inconclusive [activator, partial curve, poor fit] | 
O=C1CC(N2CCc3ccccc32)C(=O)N1c1ccc(F)cc1 (stereo not drawn) | inconclusive [activator, partial curve, poor fit] | 
O=S(=O)(Nc1cccc2cccnc12)c1ccc(S(=O)(=O)N2CCCC2)cc1 | inconclusive [activator, partial curve] | 
CCOC(=O)[C@H]1[C@H]2COc3ccc(Br)cc3[C@@H]2N2C(=O)c3cc(F)c(F)cc3NC(=O)[C@@]12C |  | inactive: 8.26%
Cc1ccccc1-c1cn(-c2ccccc2)c(=S)[nH]1 | inconclusive [activator, single point] | 
CCCn1c(=O)c2c(nc3n2CCN3c2ccc(C)cc2)n(C)c1=O |  | inactive: -10.4%
CNC(=S)N1CCN(c2nc(-c3ccc(Cl)cc3)cs2)CC1 | inconclusive [activator, single point] | 

SMILES | Potency | growth rescue
COc1cccc(NC(=O)N2CCc3nc(NCc4cccc(Oc5ccccc5)c4)ncc3C2)c1 |  | inactive: 28.3%
CN(C(=O)CSc1nnc(-c2ccc(Cl)cc2)n1C)C1CCS(=O)(=O)C1 (stereo not drawn) |  | inactive: -6.54%
Cc1nnc(NC(=O)c2ccc(S(=O)(=O)N3CC(C)CC(C)C3)cc2)o1 (stereo not drawn) | inconclusive [activator, single point] | 
O=C1Oc2ccccc2C2(O)C3CCCCCC3C12 (stereo not drawn) | inconclusive [activator, single point] | 
Fc1ccc(N2CCN(c3ncnc4c3nc3n4CCCCC3)CC2)cc1 |  | inactive: -5.15%
CC(=O)Oc1ccc(-c2csc(Nc3ccc(Cl)cn3)n2)cc1 |  | inactive: -36.3%
COC(=O)c1ccccc1Oc1cc(C(F)(F)F)nc(-c2ccccn2)n1 | inconclusive [activator, single point] | 
O=C(NC1CCCCC1)c1cccc2c(-c3ccc(F)c(F)c3)coc12 |  | inactive: -3.24%
CCOC(=O)n1c(=O)oc2cc(S(=O)(=O)N3CCCCC3)ccc21 | inconclusive [activator, partial curve, poor fit] | 
Cc1ccc(NC(=S)NCc2cccs2)c(C)c1 | inconclusive [activator, single point] | 
CCc1ccccc1NC(=S)NCc1cccn1C | inconclusive [activator, partial curve, poor fit] | 
O=C(Cn1nc(Cl)nc1Cl)c1cc2ccccc2oc1=O |  | inactive: -14.9%
CC(Cc1cccs1)NC(=S)Nc1ccc(Cl)cc1 (stereo not drawn) | inconclusive [activator, partial curve, poor fit] | 
CCOC(=O)CCCCCC(=O)Nc1ccc2c(c1)C(=O)N([C@@H](C)CO)C[C@H](C)[C@H](CN(C)C(=O)NC(C)C)OCCCC[C@H](C)O2 |  | inactive: -2.2%
Cc1ccc(SCC(=O)N(C)CC(=O)Nc2cccc(F)c2)c(C)c1 | inconclusive [activator, partial curve, poor fit] | 
CCCC[C@@H]1CNC(=S)N1CCc1cccc2ccccc12 | inconclusive [activator, single point] | 
FC(F)Oc1ccc(NC(=S)NC23CC4CC(CC(C4)C2)C3)cc1 | inconclusive [activator, partial curve] | 
C=CCNC(=S)N1N=C(c2ccco2)CC1c1ccco1 (stereo not drawn) | inconclusive [activator, single point] | 
C=C(C)CNC(=S)N/N=C/c1ccc([N+](=O)[O-])cc1 | inconclusive [activator, partial curve] | 
CCCCc1ccc(/C=C(\C#N)C(N)=S)s1 | inconclusive [activator, single point] | 
O=c1[nH]c2cc3c(cc2cc1CN(Cc1nnnn1CC1CCCO1)C1CCCCC1)OCO3 (stereo not drawn) | inconclusive [activator, single point] | 
